# Source: PubChem BioAssay AID686979 (National Center for Advancing Translational Sciences (NCATS), 2013)
# Screen size: about 420,000 compounds; about 50,000 (12%) were called active. This list was built around the results that the source calls inconclusive (neither active nor inactive); the mix of calls is not that of the screen. Calls follow the shape of the dose curve; as a rule, active = well fitted inhibition curve with a large enough effect; inconclusive = small, poorly fitted or top-dose-only effect; inactive = flat fitted curve, though single readings scatter. Potencies of inconclusive entries are left out as doubtful fits.
# Test: qHTS for Inhibitors of human tyrosyl-DNA phosphodiesterase 1 (TDP1): qHTS in cells in presence of CPT; also: nearly all actives have a fitted effect of over 55% in size
# Settings: chicken DT40 Tdp1-/-;hTDP1 cells + 20 nM CPT, ATP luminescence, 48 h; series mostly up to 46.2 µM
# Method in brief: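 Chicken DT40 Tdp1-/- cells stably complemented with human TDP1 were seeded at 400 cells/well in medium containing 20 nM camptothecin, exposed to pin-transferred compounds, and grown at 37 °C for at least 48 hr. Viability was read as ATP luminescence.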
# Potency is read from the fitted curve at half-maximal effect; tags tell the direction and shape of the fitted curve.
row,SMILES,Potency
1,CCc1ccc(NC2=NCCCS2)cc1,inactive
2,Cc1ccccc1Cn1cccc(C(=O)Nc2cc(Cl)ccc2C#N)c1=O,inactive
3,CCOc1ccc(NC(=O)CSc2oc(-c3ccccc3)nc2S(=O)(=O)c2ccc(Cl)cc2)cc1,active: 7.31 µM
4,C=C(C=O)C[C@@H]1C[C@H](O)C2OC3C[C@]4(C)OC5/C=C\CC6OC7C(CC=CCC6OC5CCCC4OC3CC2O1)OC1CC2OC3CC(=O)OC3C[C@@H](C)C[C@@]2(C)OC1C[C@@H]7C (stereo partly drawn),active: 0.651 µM
5,O=C1NCN(c2ccccc2)C12CCN(C(c1cc3ccccc3o1)c1nnnn1C1CCCCC1)CC2 (stereo not drawn),"inconclusive [inhibitor, single point]"
6,Cc1ccc(-n2c(O)c(/C=N/NC(=O)c3ccncc3)c(=O)[nH]c2=O)cc1C,inactive
7,COc1c(C)cc(C(=O)C2CCCN(Cc3cccc(C)n3)C2)cc1C (stereo not drawn),"inconclusive [inhibitor, single point]"
8,CC(CC(C#N)(c1ccccc1)c1ccccc1)N1CCOCC1 (stereo not drawn),active: 23.1 µM
9,CCN(CC)C(=O)Oc1nnc(SC(C)C)n1-c1ccc(Cl)c(Cl)c1,"inconclusive [inhibitor, single point]"
10,O=C(NN=Cc1ccc(N(CCCl)CCCl)cc1)C(=O)c1c[nH]c2ccccc12,active: 20.6 µM
11,Cc1cc(C)cc(C(=O)OC2C[C@H]3CC[C@@H](C2)N3C)c1 (stereo partly drawn),active: 23.7 µM
12,CCn1cc(C(=O)NCCc2ccc(OC)c(OC)c2)c(=O)c2cc(S(=O)(=O)N(C)C3CCCCC3)ccc21,"inconclusive [inhibitor, single point]"
13,CCOC(=O)c1cc2ccccc2n1C1CCN(Cc2ccccc2)CC1,"inconclusive [inhibitor, single point]"
14,O=C(COc1ccc(Cl)cc1)N(c1ccc(Cl)cc1)C1CN2CCC1CC2 (stereo not drawn),"inconclusive [inhibitor, partial curve, poor fit]"
15,Cc1ccc(C(=O)COC(=O)Cc2ccccc2)cc1,inactive
16,CC[C@]1(C(=O)OC)[C@H]2C(=O)N(Cc3ccccc3)C(=O)[C@H]2[C@H]2CN=C(SCc3ccc(C)cc3)N21,"inconclusive [inhibitor, single point]"
17,C=C1C(=O)O[C@@H]2C[C@@H](C)[C@@H]3C4OC4C(=O)[C@@]3(C)[C@@H](O)[C@H]12 (stereo partly drawn),active: 1.03 µM
18,COC(=O)C1=C(c2ccccc2OCc2ccccc2)C[C@@H]2CC[C@H]1N2C(=O)NCc1cccc(C(F)(F)F)c1,"inconclusive [inhibitor, single point]"
